{"source": "PubChem BioAssay AID504706", "about": "(National Center for Advancing Translational Sciences (NCATS), 2011)", "note": "Out of some 320,000 compounds screened, about 200 (0.062%) were called active. This list was built around the results that the source calls inconclusive (neither active nor inactive); the mix of calls is not that of the screen. Calls follow the shape of the dose curve; as a rule, active = well fitted activation curve with a large enough effect; inconclusive = small, poorly fitted or top-dose-only effect; inactive = no such curve, though single readings can be large or run the other way. Potencies of inconclusive entries are left out as doubtful fits. Potency is read from the fitted curve at half-maximal effect; tags tell the direction and shape of the fitted curve.", "data": [{"assay": "qHTS assay for re-activators of p53 using a Luc reporter; also: nearly all actives have a fitted effect of over 45% in size", "conditions": "H1299 p53-A138V BP100-luciferase reporter, luminescence, 24 h; series mostly up to 92.2 µM", "procedure,_shortened": "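H1299 (p53-null), stable ts p53-A138V + BP100-Luc; 1000 cells/well, Opti-MEM/10% FBS; cpd 4 pt, 1:5; 24 h, 37 deg C, 5% CO2; detection reagent 10 min RT; luminescence.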", "values": [{"smiles": "CCOC(=O)C(C)n1cnc2c(cnn2-c2ccc(Cl)cc2)c1=O", "note": "(stereo not given)", "Potency": "inconclusive [activator, full curve, poor fit]"}, {"smiles": "CCOC(=O)N1CCC(NC(=O)C2CCN(S(=O)(=O)N3CCC(C)CC3)CC2)CC1", "Potency": "inconclusive [activator, single point]"}, {"smiles": "CN(C)C=Nc1nonc1-c1ccccc1", "Potency": "inactive"}, {"smiles": "COc1ccc(C(=O)NC(=S)NNC(=O)Cc2cccs2)cc1", "Potency": "inconclusive [activator, partial curve, poor fit]"}, {"smiles": "Cn1ccnc1SCC(=O)c1cccc(C(F)(F)F)c1", "Potency": "inconclusive [activator, partial curve, poor fit]"}, {"smiles": "O=C1/C(=C/c2ccncc2)CCc2ccccc21", "Potency": "inconclusive [activator, single point]"}, {"smiles": "CC(NC(=O)c1cc(COc2ccccc2)on1)c1nccs1", "note": "(stereo not given)", "Potency": "inconclusive [activator, partial curve, poor fit]"}, {"smiles": "Cc1ccc(-n2c(SCc3ccc(C#N)cc3)nnc2-c2ccccn2)cc1", "Potency": "inactive"}, {"smiles": "S=C(NC1CC1)N1CCN(c2ccc(Cl)cc2)CC1", "Potency": "inactive"}, {"smiles": "Cc1ccc(S(=O)(=O)N2CCN(C(=O)c3n[nH]c(=O)c4ccccc34)CC2)cc1", "Potency": "inconclusive [activator, single point]"}, {"smiles": "COc1ccc(S(=O)(=O)NCC(c2ccc(F)cc2)N2CCOCC2)cc1Br", "note": "(stereo not given)", "Potency": "inactive"}, {"smiles": "Cc1ccc(-c2cnn(-c3ccccc3)c2N)cc1", "Potency": "inconclusive [activator, full curve, poor fit]"}, {"smiles": "CC(C)c1nc2ccccc2n1CC(O)COC1CCCCC1", "note": "(stereo not given)", "Potency": "inactive"}, {"smiles": "COc1ccc(-c2csc(Nc3ccc(O)cc3)n2)cc1", "Potency": "inconclusive [activator, full curve, poor fit]"}, {"smiles": "CC1CCN(S(=O)(=O)N2CCCC(C(=O)NCc3ccccc3Cl)C2)CC1", "note": "(stereo not given)", "Potency": "inactive"}, {"smiles": "Cn1nnc2cc(C(=O)Nc3ccc(Cl)cc3)ccc21", "Potency": "inactive"}, {"smiles": "COc1cc2c(-c3ccc4c(c3)OCO4)c(-c3ccsc3)oc(=O)c2cc1OC", "Potency": "inactive"}, {"smiles": "Cn1c(-c2ccc3c(c2)OCO3)cnc1NCc1cccc(Cl)c1", "Potency": "inconclusive [activator, partial curve, poor fit]"}, {"smiles": "O=[N+]([O-])c1ccc2nc(NS(=O)(=O)c3ccccc3[N+](=O)[O-])sc2c1", "Potency": "inconclusive [activator, partial curve, poor fit]"}, {"smiles": "Cc1nc2ccc(NS(=O)(=O)c3ccc(F)c(F)c3F)cc2s1", "Potency": "inactive"}, {"smiles": "O=C(Nc1nc(-c2ccncc2)cs1)C1c2ccccc2Oc2ccccc21", "Potency": "inactive"}, {"smiles": "CC(=O)Nc1ccc(NC(=O)c2ccc(-c3ccccc3Cl)o2)cc1", "Potency": "inactive"}, {"smiles": "OC1(c2cccc(C(F)(F)F)c2)CCN(c2ccc(-c3ccccc3)nn2)CC1", "Potency": "inconclusive [activator, partial curve, poor fit]"}, {"smiles": "O=C(Nc1ccccc1)C(=O)Nc1ccc2c(c1)N(C(=O)C1CC1)CCC2", "Potency": "inconclusive [activator, full curve, poor fit]"}, {"smiles": "COC(=O)C(Cc1ccc(OC(=O)c2ccc(C)cc2)cc1)N1Cc2ccccc2C1=O", "note": "(stereo not given)", "Potency": "inconclusive [activator, partial curve, poor fit]"}, {"smiles": "COc1cccc(/C=C2\\SC(=S)N(CCC(=O)N3CCCCC3CCO)C2=O)c1", "note": "(stereo not given)", "Potency": "inconclusive [activator, partial curve, poor fit]"}, {"smiles": "Cc1cccc(CC(=O)NCC2CCCCC2)c1", "Potency": "inconclusive [activator, partial curve, poor fit]"}, {"smiles": "Cc1ccc(/C=C2\\SC(=S)N(C3CCS(=O)(=O)C3)C2=O)o1", "note": "(stereo not given)", "Potency": "inactive"}, {"smiles": "O=C(c1cnn(-c2cccc(F)c2)c1)c1ccccc1O", "Potency": "inconclusive [activator, full curve, poor fit]"}, {"smiles": "Cc1ccc(Nc2nc(CSc3nnc(-c4ccncc4)n3C)cs2)cc1", "Potency": "inconclusive [activator, partial curve, poor fit]"}, {"smiles": "COc1ccc(NC(=O)c2cccc(-n3c(C)ccc3C)c2)c(OC)c1", "Potency": "inconclusive [activator, partial curve, poor fit]"}, {"smiles": "COc1ccc(-c2c(NC(=O)C(C)C)n(C)c3ccccc3c2=O)cc1", "Potency": "inactive"}, {"smiles": "COc1ccc(-n2ncc3c(NCc4cccnc4)ncnc32)cc1", "Potency": "inconclusive [activator, full curve, poor fit]"}, {"smiles": "CCN(CC)CCCNC(=O)c1ccc2c3n(nc2c1)-c1ccc(Cl)cc1CO3", "Potency": "inconclusive [activator, partial curve, poor fit]"}, {"smiles": "CC(=O)N(c1ccccc1)C1CC(C)N(C(=O)c2ccccc2)c2ccccc21", "note": "(stereo not given)", "Potency": "inconclusive [activator, single point]"}, {"smiles": "COc1ccc(C(=O)NC(C)CCCC(C)(C)O)cc1OC1CCN(C(C)=O)CC1", "note": "(stereo not given)", "Potency": "inconclusive [activator, single point]"}, {"smiles": "CNc1nc(C)nc(-n2nc(C)cc2C)n1", "Potency": "inactive"}, {"smiles": "CCCCSc1nnc(-c2c[nH]c3ccccc23)n1C", "Potency": "inconclusive [activator, full curve, poor fit]"}, {"smiles": "CCc1nc(N)c(C#N)c(-c2ccccc2OC)c1C", "Potency": "inactive"}, {"smiles": "COc1ccc(C(=O)NNC(=O)CN2CCN(c3nc(-c4ccccc4)cs3)CC2)cc1", "Potency": "inconclusive [activator, single point]"}, {"smiles": "CC(C)(C)c1ccc(Oc2ccc(NC(=O)C3CC=CCC3C(=O)O)cc2)cc1", "note": "(stereo not given)", "Potency": "inactive"}, {"smiles": "Oc1[nH]c2ccccc2c1N=Nc1ccccc1", "Potency": "active: 28.2 µM"}, {"smiles": "COC(=O)C1CCN(C(=O)/C=C/c2ccc(OC)cc2)CC1", "Potency": "inconclusive [activator, partial curve, poor fit]"}, {"smiles": "Nc1nnc(CC(=O)N/N=C\\c2cc([N+](=O)[O-])ccc2O)s1", "Potency": "inconclusive [activator, partial curve, poor fit]"}, {"smiles": "COc1ccc(/C=C\\C(=O)NCC(=O)N/N=C/c2cccc(OC)c2O)cc1", "Potency": "inactive"}, {"smiles": "Clc1ccc(OCc2noc(-c3ccsc3)n2)c(Cl)c1", "Potency": "inconclusive [activator, partial curve, poor fit]"}, {"smiles": "CC(C)(C)NC(=O)NC(=O)CSc1cccc(C(F)(F)F)c1", "Potency": "inactive"}, {"smiles": "COCCNC(=O)C(c1ccco1)N(Cc1ccc(OC)cc1)C(=O)Cn1nnc2ccccc21", "note": "(stereo not given)", "Potency": "inconclusive [activator, single point]"}, {"smiles": "CCC(C)c1ccc(OCC(=O)NNC(=O)C2CCCCC2)cc1", "note": "(stereo not given)", "Potency": "inconclusive [activator, single point]"}, {"smiles": "COc1ccccc1CNC(=S)NC1CCCC1", "Potency": "inactive"}, {"smiles": "Cc1c(C(=O)NC(=S)Nc2ccc(N3CCOCC3)cc2)cccc1[N+](=O)[O-]", "Potency": "inactive"}, {"smiles": "O=C(Nc1ccccc1Cl)c1ccc(Cl)cc1Cl", "Potency": "inconclusive [activator, partial curve, poor fit]"}, {"smiles": "COCCCn1c(C)cc(C(=O)CN2c3cccc4cccc(c34)S2(=O)=O)c1C", "Potency": "inconclusive [activator, single point]"}, {"smiles": "O=C(OCc1nc2ccc(Cl)cc2n1CCO)c1ccccc1", "Potency": "inactive"}, {"smiles": "Cc1cccc(/C=N/NC(=O)c2ccc3c(c2)OCCO3)c1O", "Potency": "inconclusive [activator, partial curve, poor fit]"}, {"smiles": "O=C(c1noc2c1CCCC2)N1CCN(C(c2ccccc2)c2ccccc2)CC1", "Potency": "inconclusive [activator, partial curve, poor fit]"}, {"smiles": "c1ccc(COc2ccc(OCCCNC3CCCC3)cc2)cc1", "Potency": "inconclusive [activator, partial curve]"}, {"smiles": "CCc1ccc(/C=C2\\SC(=S)N(CCC(=O)NCCCN3CCOCC3)C2=O)cc1", "Potency": "inconclusive [activator, partial curve, poor fit]"}, {"smiles": "CC(C)n1cnc2cc(NCc3nc4ccccc4n3C)ccc21", "Potency": "inconclusive [activator, partial curve, poor fit]"}, {"smiles": "CCCC(=O)Nc1ccc(C=C(C(C)=O)C(C)=O)cc1", "Potency": "inactive"}, {"smiles": "Cc1ncc(CO)c(/C=N/Nc2ccc(C(F)(F)F)cn2)c1O", "Potency": "inconclusive [activator, partial curve, poor fit]"}, {"smiles": "Cc1ccc(C)c(N2CCN(C(=O)CCc3nc(-c4cccc(C(F)(F)F)c4)no3)CC2)c1", "Potency": "inconclusive [activator, partial curve]"}, {"smiles": "Cc1nc2cc(NC(=O)NCc3ccccc3)ccc2o1", "Potency": "inconclusive [activator, single point]"}, {"smiles": "Cc1cccc(NC(=S)NCc2ccc3c(c2)OCO3)c1", "Potency": "inactive"}, {"smiles": "O=C(NCCCc1ccccc1)Nc1cccc(Cl)c1", "Potency": "inconclusive [activator, full curve, poor fit]"}, {"smiles": "Cc1ccc(-c2nn(-c3ccccc3)cc2/C=C2\\SC(=S)N(CCCCCC(=O)O)C2=O)o1", "Potency": "inconclusive [activator, single point]"}, {"smiles": "COc1cc([N+](=O)[O-])c(OC)cc1SCc1n[nH]c(=S)n1-c1ccc(F)cc1", "Potency": "inactive"}, {"smiles": "Cc1cc(C(=O)COC(=O)c2ccccc2NCCO)c(C)n1CC1CCCO1", "note": "(stereo not given)", "Potency": "inactive"}, {"smiles": "O=C(O)c1cccc(N/N=C(\\N=Nc2ccccc2)c2ccccc2)c1", "Potency": "inconclusive [activator, partial curve, poor fit]"}, {"smiles": "CC1Cc2cc(/C(O)=C3/C(=O)C(=O)N(Cc4ccncc4)C3c3ccc(N(C)C)cc3)ccc2O1", "note": "(stereo not given)", "Potency": "inactive"}]}]}
